According to PubChem BioAssay AID2675 (National Center for Advancing Translational Sciences (NCATS), 2010):
Screen size: about 280,000 compounds; about 100 (0.036%) were called active. Inconclusive results, whose numbers are uncertain, are shown with a selection of clear calls. Calls follow the shape of the dose curve; as a rule, active = well fitted inhibition curve with a large enough effect in the signal ratio, with a control signal flat (not every such curve was filed as active); inconclusive = small, poorly fitted or top-dose-only effect, or effect the other way, or a change in a side signal; inactive = no such curve, though single readings can be large or run the other way; the % refers to the signal ratio. A potency beside an inconclusive call is a rough fit, not a confirmed value. A note “side channel” means that the fit belongs to a control or component signal, not to the main read-out.

target: Muscleblind-like protein 1 (Homo sapiens) (UniProt Q9NR56); experiment: qHTS Assay for Inhibitors of MBNL1-poly(CUG) RNA binding; conditions: TR-FRET MBNL1-His/biotin-(CUG)12 binding, 665/545 ratio; activity change, negative = inhibition: at 57.5 µM (top of the series)
Chain of UniProt Q9NR56 (Q9NR56 whole entry, looked up): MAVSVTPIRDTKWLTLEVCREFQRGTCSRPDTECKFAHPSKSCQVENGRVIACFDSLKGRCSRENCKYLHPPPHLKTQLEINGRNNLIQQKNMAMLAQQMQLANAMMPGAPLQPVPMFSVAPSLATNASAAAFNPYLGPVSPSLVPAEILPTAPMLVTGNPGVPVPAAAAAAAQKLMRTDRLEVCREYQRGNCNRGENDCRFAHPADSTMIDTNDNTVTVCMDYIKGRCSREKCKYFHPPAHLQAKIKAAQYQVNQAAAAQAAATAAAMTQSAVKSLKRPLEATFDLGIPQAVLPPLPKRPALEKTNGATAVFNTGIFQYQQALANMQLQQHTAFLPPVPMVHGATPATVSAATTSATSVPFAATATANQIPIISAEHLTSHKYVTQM
Outline: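 His-tagged MBNL1 binding to biotinylated (CUG)12 RNA was measured by TR-FRET using terbium anti-His antibody (0.055 ng/ul final) and streptavidin-XL665 (5 nM final). Compounds were titrated 92 nM to 58 uM; 60 min at room temperature.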
% is scaled to controls: 0 for no effect and ±100 for the full control effect; potency is read from the fitted curve at half-maximal effect; tags tell the direction and shape of the fitted curve or compound fluorescence and quenching.

Structure (SMILES)	activity change, negative = inhibition	Potency
O=S(=O)(CCSc1nc2ccccc2o1)c1nc2ccccc2s1	inactive: -8.79%	
Cc1cc(C)n(-c2nncc(-c3ccccc3)n2)n1		inconclusive: 12.6 µM [quencher, side channel, partial curve]
CCc1sc(N(C(=O)Cc2ccccc2)c2ccccc2F)nc1-c1ccc(C)cc1		inconclusive: 1 µM [fluorescent, side channel, partial curve]
CCOC(=O)c1c(NC(=O)CSc2ncccn2)sc2c1CC(C)(C)NC2(C)C	inactive: -9.9%	
COc1ccc(C2=NS(=O)(=O)N(C)C(C(=O)Nc3ccc(OC)c(OC)c3)=C2)cc1		inconclusive: 15.8 µM [quencher, side channel, partial curve]
COc1ccc(CCNC(=O)COC(=O)/C=C/c2ccc(OCC#N)c(OC)c2)cc1OC		inconclusive: 39.8 µM [quencher, side channel, partial curve, poor fit]
Cc1nn(-c2ccccc2)c(C)c1/C=N/O	inactive: 0.583%	
O=[N+]([O-])c1ccccc1/C=N/n1c(C(F)(F)F)n[nH]c1=S		inconclusive: 28.2 µM [quencher, side channel, single point]
CCCCOc1ccc(C(=O)C(CN2CCOCC2)c2ccccc2)cc1 (configuration not stated)		inconclusive: 0.501 µM [quencher, side channel, partial curve, poor fit]
CCOC(=O)N1CCC(N2CCN(S(=O)(=O)c3ccc([N+](=O)[O-])cc3)CC2)CC1		inconclusive: 7.94 µM [quencher, side channel, partial curve]
O=[N+]([O-])c1ccc(N(CC(O)CN2CCCCC2)S(=O)(=O)c2ccccc2)cc1 (configuration not stated)		inconclusive: 28.2 µM [quencher, side channel, partial curve]
CCOc1ccc(N2C(=O)C(Cl)=C(Nc3ccccc3O)C2=O)cc1		inconclusive: 28.2 µM [quencher, side channel, partial curve]
CC1CCc2c(sc(NC(=O)CSc3nc4c(c(C(F)(F)F)n3)CCc3ccccc3-4)c2C(N)=O)C1 (configuration not stated)		inconclusive: 0.355 µM [fluorescent, side channel, full curve]
S=C(NC1CCCCC1)N1CCCCC1	inactive: -1.56%	
Cc1cc(NC(=O)Cn2nnc3sc4c(c3c2=O)CCCC4)no1		inconclusive: 25.1 µM [quencher, side channel, partial curve]
COc1ccc(N(CC(=O)N/N=C/c2cc(OC)ccc2OC)S(=O)(=O)c2ccccc2)cc1	inactive: 1.33%	
COc1cc(C(=O)Nc2ccc(S(=O)(=O)Nc3nccc(C)n3)cc2)cc(OC)c1OC		inconclusive: 0.316 µM [fluorescent, side channel, full curve, poor fit]
